Measurements published in patent US20250019440A1 (Zymeworks, published 2025).
Where two headings read alike, the source gives them in different places.

Key:
PD-L1 on cells = PD-L1 on cells (UniProt Q9NZQ7); assay: cell-based or functional assay
Human PD-L2 = biological target: T1, Human PD-L2 (human, UniProt Q9BQ51 20-219); assay: SPR, PD-L2 amine-coupled, variant as analyte
T1 construct: Amine-coupled to a CM5 chip for SPR; also called recombinant PD-L2
T1 sequence (looked up): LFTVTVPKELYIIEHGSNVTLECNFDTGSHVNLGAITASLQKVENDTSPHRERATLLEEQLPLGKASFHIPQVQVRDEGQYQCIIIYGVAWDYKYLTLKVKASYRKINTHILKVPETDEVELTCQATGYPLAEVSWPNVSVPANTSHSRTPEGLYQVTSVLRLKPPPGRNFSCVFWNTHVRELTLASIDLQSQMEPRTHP

Human CD3 (recombinant) [1] = biological target: Human CD3 (recombinant) (human); assay: SPR, CD3 amine-coupled, variant as analyte, 1:1 model
Human PD-L1 [2] = biological target: T2, Human PD-L1 (human, UniProt Q9NZQ7 fragment); assay: SPR, PD-L1 amine-coupled, variant as analyte, 1:1 model
T2 construct: Amine-coupled to a CM5 chip for SPR; also called recombinant human PD-L1

Human PD-L1 [3] = biological target: T2, Human PD-L1; assay: SPR, PD-L1 amine-coupled, variant as analyte, 1:1 model; first of three variants in the merged cell (HAC PD-1)
Human CD3 (recombinant) [4] = biological target: Human CD3 (recombinant) (human); assay: SPR, CD3 amine-coupled, variant as analyte, 1:1 model; remark: listed apart in the source
Human PD-L1 [5] = biological target: T2, Human PD-L1; assay: SPR, PD-L1 amine-coupled, variant as analyte, 1:1 model; remark: listed apart in the source
Human mesothelin = biological target: T3, Human mesothelin (human, UniProt Q13421 296-580, limits assumed); assay: SPR, mesothelin amine-coupled; apparent KD, variant binds mesothelin bivalently but was fit 1:1
T3 construct: Amine-coupled to a CM5 chip for SPR; also called MSLN; recombinant human mesothelin

Human PD-L1 [6] = biological target: T2, Human PD-L1; assay: SPR, PD-L1 amine-coupled, variant as analyte
Mouse PD-L1 [7] = biological target: T4, Mouse PD-L1 (mouse, UniProt Q9EP73 fragment, limits assumed); assay: SPR, PD-L1 amine-coupled, variant as analyte
T4 construct: Amine-coupled to a CM5 chip for SPR; also called recombinant mouse PD-L1

Cynomolgus monkey PD-L1 [8] = biological target: T5, Cynomolgus monkey PD-L1 (cynomolgus monkey, UniProt G7PSE7 19-239); assay: SPR, PD-L1 amine-coupled, variant as analyte
T5 construct: Amine-coupled to a CM5 chip for SPR; also called recombinant cynomolgus monkey PD-L1

Human PD-L1 [9] = biological target: T2, Human PD-L1; assay: SPR, PD-L1 amine-coupled, variant as analyte, 1:1 model; remark: listed apart in the source
Mouse PD-L1 [10] = biological target: T4, Mouse PD-L1; assay: as above
Cynomolgus monkey PD-L1 [11] = biological target: T5, Cynomolgus monkey PD-L1; assay: as above
T5 sequence (G7PSE7 entry or part of it): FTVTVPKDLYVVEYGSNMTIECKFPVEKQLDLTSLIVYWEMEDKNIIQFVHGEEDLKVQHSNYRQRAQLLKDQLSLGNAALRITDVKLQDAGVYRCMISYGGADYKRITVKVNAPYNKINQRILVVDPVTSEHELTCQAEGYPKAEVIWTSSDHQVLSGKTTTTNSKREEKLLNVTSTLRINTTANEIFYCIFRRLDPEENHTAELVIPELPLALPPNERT

Human CD3 (recombinant), sequence (chain, as listed by the source): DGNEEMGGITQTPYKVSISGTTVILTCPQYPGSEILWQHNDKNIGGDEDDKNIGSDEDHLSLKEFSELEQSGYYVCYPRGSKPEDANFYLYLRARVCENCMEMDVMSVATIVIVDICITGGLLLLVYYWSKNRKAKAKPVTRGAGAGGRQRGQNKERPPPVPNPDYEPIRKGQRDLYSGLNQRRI
T2 sequence (Q9NZQ7 19-239 limits assumed): as the sequence (G7PSE7 entry or part of it) above, with T33A, S34A, N62S, Q68R, R82Q, L173F, A185T, I192T, L215H counted along it
T4 sequence (Q9EP73 19-238 limits assumed): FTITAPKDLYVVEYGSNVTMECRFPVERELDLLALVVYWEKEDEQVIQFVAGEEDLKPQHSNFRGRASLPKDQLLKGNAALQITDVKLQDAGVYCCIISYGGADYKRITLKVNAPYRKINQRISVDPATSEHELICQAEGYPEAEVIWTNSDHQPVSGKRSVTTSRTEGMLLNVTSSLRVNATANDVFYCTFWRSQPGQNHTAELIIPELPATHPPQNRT
PD-L1 on cells, sequence (Q9NZQ7 19-290 limits assumed): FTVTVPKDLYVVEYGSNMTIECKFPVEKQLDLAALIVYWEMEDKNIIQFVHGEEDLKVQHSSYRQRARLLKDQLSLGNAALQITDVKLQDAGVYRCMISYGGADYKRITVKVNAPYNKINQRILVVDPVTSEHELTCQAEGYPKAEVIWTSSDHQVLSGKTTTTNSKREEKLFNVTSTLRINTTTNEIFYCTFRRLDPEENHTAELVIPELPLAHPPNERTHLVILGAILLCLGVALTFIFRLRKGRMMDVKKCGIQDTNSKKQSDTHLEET
Human mesothelin, sequence (Q13421 other isoform, or with tags, fused parts or gaps limits assumed): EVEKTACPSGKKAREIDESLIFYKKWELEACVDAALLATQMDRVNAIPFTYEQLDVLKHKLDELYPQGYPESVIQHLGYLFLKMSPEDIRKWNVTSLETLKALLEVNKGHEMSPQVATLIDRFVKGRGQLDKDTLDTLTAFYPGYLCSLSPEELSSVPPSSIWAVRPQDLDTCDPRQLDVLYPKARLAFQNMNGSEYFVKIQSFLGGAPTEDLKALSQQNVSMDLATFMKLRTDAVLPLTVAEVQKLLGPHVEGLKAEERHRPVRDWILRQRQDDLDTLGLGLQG

B1: v38410 (other)
heavy 1: EVQLVESGGGLVQPGGSLRLSCAASGVTFNYYGMSWIRQAPGKGLEWVASITSSGGRIYYPDSVKGRFTISRENTQKTLYLQMNSLRAEDTAVYYCTLDGRDGWVAYWGQGTLVTVSSASTKGPSVFPLAPSSKSTSGGTAALGCLVKDYFPEPVTVSWNSGALTSGVHTFPAVLQSSGLYSLSSVVTVPSSSLGTQTYICNVNHKPSNTKVDKKVEPKSCDKTHTCPPCPAPEAAGGPSVFLFPPKPKDTLMISRTPEVTCVVVSVSHEDPEVKFNWYVDGVEVHNAKTKPREEQYNSTYRVVSVLTVLHQDWLNGKEYKCKVSNKALPAPIEKTISKAKGQPREPQVYVYPPSRDELTKNQVSLTCLVKGFYPSDIAVEWESNGQPENNYKTTPPVLDSDGSFALVSKLTVDKSRWQQGNVFSCSVMHEALHNHYTQKSLSLSPGGGG[about 120 residues not shown]
light: NFMLTQPHSVSESPGKTVTISCKRNTGNIGSNYVNWYQQHEGSSPTTIIYRNDKRPDGVSDRFSGSIDRSSKSASLTISNLKTEDEADYFCQSYSSGFIFGGGTKLTVLGQPKAAPSVTLFPPSSEELQANKATLVCLISDFYPGAVTVAWKADSSPVKAGVETTTPSKQSNNKYAASSYLSLTPEQWKSHRSYSCQVTHEGSTVEKTVAPTECS
heavy 2: QVQLVESGGGLVQPGGSLRLSCSVSGIDLSSNPMIWVRQAPGKGLQYIGIIDTDGSTYYADWAKGRFTISKDSTTVYLQINSPRAEDTAVYYCARRLHGSSNGYYDDLWGQGTLVTVSSGGGGSGGGGSGGGGSGGGGSDGQMTQSPSSVSASVGDRVTITCQASQSIYSYLSWYQQKPGQRPKLLIYKASTLASGVPSRFSGSGSGTDFTLTISSVQPEDFATYYCQQGYTVTNVDKNTFGGGTKVEIKAAEPKSSDKTHTCPPCPAPEAAGGPSVFLFPPKPKDTLMISRTPEVTCVVVSVSHEDPEVKFNWYVDGVEVHNAKTKPREEQYNSTYRVVSVLTVLHQDWLNGKEYKCKVSNKALPAPIEKTISKAKGQPREPQVYVLPPSRDELTKNQVSLLCLVKGFYPSDIAVEWESNGQPENNYLTWPPVLDSDGSFFLYSKLTVDKSRWQQGNVFSCSVMHEALHNHYTQKSLSLSPG
EC50 (read off the curve); hybrid PD-1/PD-L1 reporter gene assay, delta RLU, PD-1+ Jurkat T cells with SNU-620 cells, bottom left graph; composite signal of CD3 engagement and PD-1:PD-L1 blockade (PD-L1 on cells): ~0.01 nM
binding result (Human PD-L2): no binding (tested: 7.17-500 nM)
Kd (Human CD3 (recombinant) [1]): 45 nM
Kd (Human PD-L1 [2]): 3.2 nM
Kd (Human PD-L1 [3]): 9.3 nM

B2: v38450 (other)
heavy 1: DIQMTQSPSSLSASVGDRVTITCSASSSVSYMHWYQQKSGKAPKLLIYDTSKLASGVPSRFSGSGSGTDFTLTISSLQPEDFATYYCQQWSGYPLTFGQGTKLEIKGGGGSGGGGSGGGGSGGGGSQVQLVQSGAEVKKPGASVKVSCKASGYSFTGYTMNWVRQAPGQGLEWMGLITPYNGASSYNQKFRGKATMTVDTSTSTVYMELSSLRSEDTAVYYCARGGYDGRGFDYWGQGTLVTVSSGGGGSGEVQLVESGGGLVQPGGSLRLSCAASGVTFNYYGMSWIRQAPGKGLEWVASITSSGGRIYYPDSVKGRFTISRENTQKTLYLQMNSLRAEDTAVYYCTLDGRDGWVAYWGQGTLVTVSSASTKGPSVFPLAPSSKSTSGGTAALGCLVKDYFPEPVTVSWNSGALTSGVHTFPAVLQSSGLYSLSSVVTVPSSSLGTQTYICNVNHKPSNTKVDKK[human IgG1 Fc with changes not shown]
light: B1 light
heavy 2: DIQMTQSPSSLSASVGDRVTITCSASSSVSYMHWYQQKSGKAPKLLIYDTSKLASGVPSRFSGSGSGTDFTLTISSLQPEDFATYYCQQWSGYPLTFGQGTKLEIKGGGGSGGGGSGGGGSGGGGSQVQLVQSGAEVKKPGASVKVSCKASGYSFTGYTMNWVRQAPGQGLEWMGLITPYNGASSYNQKFRGKATMTVDTSTSTVYMELSSLRSEDTAVYYCARGGYDGRGFDYWGQGTLVTVSSAAEPKSSDKTHTCPPCPAPEAAGGPSVFLFPPKPKDTLMISRTPEVTCVVVSVSHEDPEVKFNWYVDGVEVHNAKTKPREEQYNSTYRVVSVLTVLHQDWLNGKEYKCKVSNKALPAPIEKTISKAKGQPREPQVYVLPPSRDELTKNQVSLLCLVKGFYPSDIAVEWESNGQPENNYLTWPPVLDSDGSFFLYSKLTVDKSRWQQGNVFSCSVMHEALHNHYTQKSLSLSPGGGG[about 120 residues not shown]
binding result (Human PD-L2): no binding (tested: 7.17-500 nM)
Kd (Human CD3 (recombinant) [4]): 40 nM
Kd (Human PD-L1 [5]): 6.7 nM
Kd (Human PD-L1 [2]): 31 nM
Kd (Human mesothelin): 0.12 nM

B3: v38401 (other)
heavy 1: NPPTFSPALLVVTEGDNATFTCSFSNTSESFVLNWYRMSPSNQTDALAAFPEDRSQPGQDARFRVTQLPNGRDFHMSVVRARRNDSGTYLCGAASLAPKAQIKESLRAELRVTEEAAAKEAAAKEVQLVESGGGLVQPGGSLRLSCAASGVTFNYYGMSWIRQAPGKGLEWVASITSSGGRIYYPDSVKGRFTISRENTQKTLYLQMNSLRAEDTAVYYCTLDGRDGWVAYWGQGTLVTVSSASTKGPSVFPLAPSSKSTSGGTAALGCLVKDYFPEPVTVSWNSGALTSGVHTFPAVLQSSGLYSLSSVVTVPSSSLGTQTYICNVNHKPSNTKVDKK[human IgG1 Fc with changes not shown]
light: B1 light
heavy 2: [about 100 residues not shown]GGSGGGSGGGSGGGSGGGSG[about 120 residues not shown][about 250 residues not shown]
notes: CD3 x Her2 Fab x scFv Fc, attenuated (KO) PD-1 attached to CD3 HC
binding result (Human PD-L1 [6]): no binding
binding result (Mouse PD-L1 [7]): no binding
binding result (Cynomolgus monkey PD-L1 [8]): no binding

B4: v38409 (other)
heavy 1: [about 120 residues not shown]GGGSGQVQLVESGGGLVQPGGSLRLSCSVSGIDLSSNPMIWVRQAPGKGLQYIGIIDTDGSTYYADWAKGRFTISKDSTTVYLQINSPRAEDTAVYYCARRLHGSSNGYYDDLWGQGTLVTVSSASTKGPSVFPLAPSSKSTSGGTAALGCLVKDYFPEPVTVSWNSGALTSGVHTFPAVLQSSGLYSLSSVVTVPSSSLGTQTYICNVNHKPSNTKVDKKVEPKSCDKTHTCPPCPAPEAAGGPSVFLFPPKPKDTLMISRTPEVTCVVVSVSHEDPEVKFNWYVDGVEVHNAKTKPREEQYNSTYRVVSVLTVLHQDWLNGKEYKCKVSNKALPAPIEKTISKAKGQPREPQVYVLPPSRDELTKNQVSLLCLVKGFYPSDIAVEWESNGQPENNYLTWPPVLDSDGSFFLYSKLTVDKSRWQQGNVFSCSVMHEALHNHYTQKSLSLSPG
light: DGQMTQSPSSVSASVGDRVTITCQASQSIYSYLSWYQQKPGQRPKLLIYKASTLASGVPSRFSGSGSGTDFTLTISSVQPEDFATYYCQQGYTVTNVDKNTFGGGTKVEIKRTVAAPSVFIFPPSDEQLKSGTASVVCLLNNFYPREAKVQWKVDNALQSGNSQESVTEQDSKDSTYSLSSTLTLSKADYEKHKVYACEVTHQGLSSPVTKSFNRGEC
heavy 2: EVQLVESGGGLVQPGGSLRLSCAASGVTFNYYGMSWIRQAPGKGLEWVASITSSGGRIYYPDSVKGRFTISRENTQKTLYLQMNSLRAEDTAVYYCTLDGRDGWVAYWGQGTLVTVSSGGGGSGGGGSGGGGSGGGGSNFMLTQPHSVSESPGKTVTISCKRNTGNIGSNYVNWYQQHEGSSPTTIIYRNDKRPDGVSDRFSGSIDRSSKSASLTISNLKTEDEADYFCQSYSSGFIFGGGTKLTVLA[human IgG1 Fc with changes not shown]
Kd (Human CD3 (recombinant) [1]): 40 nM
Kd (Human PD-L1 [9]): 3.2 nM
Kd (Mouse PD-L1 [10]): 13 nM
Kd (Cynomolgus monkey PD-L1 [11]): 5.6 nM
Kd (Human PD-L1 [3]): 6.5 nM
